Data from PubChem BioAssay AID1645882 (National Center for Advancing Translational Sciences (NCATS), 2021).
Among all 16,000 compounds or so, about 120 (0.75%) were called active. Another 4% or so got no clear call; they are omitted. The call rests on the fitted dose curve; in most records, active means well fitted inhibition curve with a large enough effect; inconclusive means small, poorly fitted or top-dose-only effect; inactive means no such curve, though single readings can be large or run the other way. The list shows a part of the results. *1 amine or outer side, *2 acyl side, *3 side chain or, on linkers, in order; H or OH if unused. Where a SMILES comes first, the peptide text is derived from it. Bridges are numbered along the chain shown (N, C = ends). Roman numbers before positions name the chains, in order. [ ]: non-standard residue; d: D form. The star is where a group is joined. Actinocin(9to1) = Cc1c2oc3c(C)ccc(C(=O)[*:1])c3nc-2c(C(=O)[*:2])c(N)c1=O; aThr = C[C@H](O)[C@H](N)C(=O)O; NMeV = CN[C@H](C(=O)O)C(C)C; Cbz = O=C(OCc1ccccc1)*; Sar = CNCC(=O)O; CH2F = FC*

Each compound was assayed against Rap guanine nucleotide exchange factor 3 (Homo sapiens) (UniProt O95398) (assay: Validation qHTS for antagonist of cAMP-regulated guanine nucleotide exchange factor 3 (EPAC1)). Settings: EPAC1 Rap1B-BODIPY-GDP exchange, fluorescence; series mostly up to 150 µM; activity change, negative = inhibition: at the top concentration.
UniProt O95398, sequence (O95398 whole entry, looked up): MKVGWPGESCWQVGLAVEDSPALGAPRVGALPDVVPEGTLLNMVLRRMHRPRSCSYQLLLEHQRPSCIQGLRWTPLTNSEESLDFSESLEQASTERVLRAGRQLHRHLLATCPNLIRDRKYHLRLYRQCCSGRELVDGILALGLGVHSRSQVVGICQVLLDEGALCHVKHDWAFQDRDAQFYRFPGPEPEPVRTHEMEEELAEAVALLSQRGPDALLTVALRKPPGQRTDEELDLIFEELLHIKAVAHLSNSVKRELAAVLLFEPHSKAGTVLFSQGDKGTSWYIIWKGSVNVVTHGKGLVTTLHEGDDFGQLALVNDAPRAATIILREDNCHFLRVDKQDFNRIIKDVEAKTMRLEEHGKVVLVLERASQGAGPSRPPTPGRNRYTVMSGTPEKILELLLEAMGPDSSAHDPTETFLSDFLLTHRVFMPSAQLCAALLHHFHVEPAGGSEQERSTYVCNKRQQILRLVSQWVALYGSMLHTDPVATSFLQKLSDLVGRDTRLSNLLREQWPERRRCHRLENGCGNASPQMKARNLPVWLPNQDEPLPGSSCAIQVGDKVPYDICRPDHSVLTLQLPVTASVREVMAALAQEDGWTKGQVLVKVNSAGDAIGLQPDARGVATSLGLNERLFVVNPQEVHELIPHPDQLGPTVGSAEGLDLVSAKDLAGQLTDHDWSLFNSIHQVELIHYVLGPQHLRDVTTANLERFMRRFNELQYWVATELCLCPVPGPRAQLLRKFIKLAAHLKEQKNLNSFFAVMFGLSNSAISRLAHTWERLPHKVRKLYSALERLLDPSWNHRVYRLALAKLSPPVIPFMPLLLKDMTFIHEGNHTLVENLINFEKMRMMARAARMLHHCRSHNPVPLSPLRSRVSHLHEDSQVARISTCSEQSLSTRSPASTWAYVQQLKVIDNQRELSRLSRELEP
How it was run: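 EPAC1 (100 nM) mixed with 250 nM RAP1B-BODIPY-GDP and 50 uM GDP; compounds in concentration series, 5 min at room temperature. Fluorescence (ex 480/em 540 nm) read every 5 min for 30 min; normalized to ATA control and DMSO.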
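Further: plate controls were DMSO for no effect and ATA control for full effect; nearly all actives have a fitted effect of over 75% in size.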

Activity change, negative = inhibition, inactive:
Cc1onc(-c2ccccc2)c1-c1ccc(S(N)(=O)=O)cc1 11.5%
O=c1cnc2cnc(N3CCOCC3)nc2n1C1CC1 2.36%
O=C(Nc1ccccc1)N1CCCC2(CCN(C(=O)c3cccc(F)c3)CC2)C1 6.25%
CC1=C(CC(=O)O)c2cc(F)ccc2/C1=C\c1ccc(S(C)=O)cc1 (stereo not drawn)
CC(=O)N1CCC2(CCN(Cc3ccc(C#N)cc3)CC2)CC1 13%
CCC(=O)N[C@@H]1c2ccccc2C2(CCN(Cc3ccccn3)CC2)[C@H]1OC 10.4%
CC[N+]1(CC)CCC(=C(c2ccccc2)c2ccccc2)C1C (stereo not drawn) 29.2%
COCC(=O)N1CCC2(CC1)CN(C(c1ccccc1)c1ccccc1)C2 1.39%
CCCc1cc(=O)[nH]c(=S)[nH]1
COc1ccc(C(=O)N2CCC3(CC2)CN(c2ccccn2)C3)cc1 12.9%
Cc1ccc(CN2[C@H]3CCCC[C@@H]3OCCS2(=O)=O)cc1 -2%
O=S(=O)(N(Cc1ccccc1)[C@H](CO)Cc1ccccc1)N(Cc1ccccc1)[C@H](CO)Cc1ccccc1 6.54%
N#CCCn1c(=O)c(-c2ccccc2)nc2cnc(OCc3ccccc3)nc21 9.4%
Cn1cnc2nc(NCCO)nc(NCc3ccccc3)c21 27.8%
O=c1[nH]c(=O)c2[nH]c(=O)[nH]c2[nH]1
CN=C1N[C@H](c2ccccc2)N(c2ccccc2)S1 -0.126%
Nc1nc(OCc2ccccc2)c2[nH]cnc2n1 3.95% [at 75.8 µM]
COc1ccc(CN2CCOc3ccc(CN4CCC(Oc5cccnc5)CC4)cc3C2)c(F)c1 7.6%
CCCCC(=O)O
Cc1c2oc3c(C)ccc(C(=O)N[C@@H]4C(=O)N[C@@H](C(C)C)C(=O)N5CCC[C@@H]5C(=O)N(C)CC(=O)N(C)[C@@H](C(C)C)C(=O)O[C@H]4C)c3nc-2c(C(=O)N[C@@H]2C(=O)N[C@@H](C(C)C)C(=O)N3CCC[C@@H]3C(=O)N(C)CC(=O)N(C)[C@@H](C(C)C)C(=O)O[C@H]2C)c(N)c1=O (I: [aThr]V[dP][Sar][NMeV] / II: [aThr]V[dP][Sar][NMeV]; ester I:1-I:C, II:1-II:C; linker I:N-II:N via Actinocin(9to1)) -8.52%
CN(C)c1ccc(/C=C/c2cc(N(C)C)nc3ccccc23)cc1 -0.19%
c1ccc2c(Cc3c[nH]c4ccccc34)c[nH]c2c1 -12.5%
Cc1sc(N)c(C(=O)c2cccc(C(F)(F)F)c2)c1C -29.6%
COc1ccc(OC)c2c(=S)c3ccccc3[nH]c12 -19.8%
CN(C)Cc1ccccc1-c1ccc2ncnc(NCc3ccccc3)c2c1 28.6%
COC(=O)[C@@H]1CCCN1Cc1ccc2c(c1)CN(Cc1cc(OC)c3c(c1)OCO3)CCO2 2.66%
CCCN[C@@H]1C(=O)N2C(C(=O)OCCC)=C(C)CS[C@H]12 -14.6%
CN(Cc1cnc2ccccn12)C(=O)c1cc(NC(=O)c2ccccc2)cc2ncn(C3CCCC3)c12 -3.58%
CO/N=C(\C(=O)N[C@@H]1C(=O)N2C(C(=O)OCOC(=O)C(C)(C)C)=C(/C=C\c3scnc3C)CS[C@H]12)c1csc(N)n1 18%
Cc1ccccc1-c1cc(N2CCNCC2)ncn1 15.4%
CCC(C(=O)OCCOCCN(CC)CC)c1ccccc1 (stereo not drawn) 13.5%
S=C(S)OC1CC2CC1C1CCCC21 (stereo not drawn) -9.81% [at 75.8 µM]
CC[N+]1(CC(=O)c2ccc(OC)cc2)CCCCC1 15.6%
COc1ccccc1-c1nc(N2CCN(C)CC2)c2ccccc2n1 0.0166%
O=c1cc(-c2ccccc2F)[nH]c2cc3c(cc12)OCO3 26.5% [at 75.8 µM]
O=[N+]([O-])c1ccc(-c2nc(-c3ccc(F)cc3)c(-c3ccncc3)[nH]2)cc1 1.72% [at 75.8 µM]
COC(=O)c1cccnc1 -11%
CN(C)c1ncc2nc(-c3cc(F)cc(F)c3)c(=O)n(C3CC3)c2n1 4.54%
Cc1ccc(SCCN2CCC(C)CCC2=O)cc1 (stereo not drawn) 4.59%
OC(CN1CCCC1)c1ccccc1 (stereo not drawn) 18.5%
O=S1(=O)CCOC[C@H](c2ccccc2)N1Cc1cccc(Cl)c1 -14.2%
CC1(C)CCC(=O)N2CC[C@H]3C[C@H](OC(=O)Nc4ccccc4)C[C@@H]1[C@H]32 -11.9%
COc1ccccc1-c1cc2c(c(OC)c1)OCCN(C(=O)Cn1nc(-c3ccccc3)c3ccccc3c1=O)C2 5.74%
C=C[C@@H]1c2cc(C)ccc2N(S(=O)(=O)c2ccc(C)cc2)[C@H](c2ccc(C(=O)OC)cc2)C1(C#N)C#N 6.81%
O=C(CCc1ccc(O)cc1)c1c(O)cc(O)cc1O[C@@H]1O[C@H](CO)[C@@H](O)[C@H](O)[C@H]1O -12.4%
CCC1C(=O)NCCN1Cc1ccc2c(c1)CN(Cc1cccn1-c1ccc(Cl)cn1)CCO2 (stereo not drawn) 3.29%
CCNc1ncc2nc(-c3ccc(F)cc3)c(=O)n(-c3ccc(OC)cc3)c2n1 19.4%
C[C@]12CCC(=O)C=C1CC[C@@H]1[C@@H]2[C@@H](O)C[C@@]2(C)[C@H]1CC[C@]2(O)C(=O)CO 5.68% [at 75.8 µM]
CCC(=O)OC1C2CC3=C4CC(=O)OC(c5ccoc5)[C@]4(C)CCC3[C@@](C)(C2=O)C(CC(=O)OC)C1(C)C (stereo partly drawn) -8.44%
COc1cccc(-c2cncnc2NCc2cccs2)c1 8.95%
COCC(=O)N1CCC2(CCN(Cc3cc(C(F)(F)F)cc(C(F)(F)F)c3)CC2)CC1 15.9%
O=C(NCCc1cccnc1)c1cnn(-c2ncc3c(n2)-c2ccccc2CC3)c1C1CC1 18.3%
CCCC(=O)Nc1nc2c(ncn2[C@@H]2O[C@H]3COP(=O)(O)O[C@@H]3[C@@H]2OC(=O)CCC)c(=O)[nH]1 13.4%
CCNc1ncc2ncc(=O)n(CCOC)c2n1 14.9%
COc1ccccc1CNc1cc(-c2ccccc2CN(C)C)ncn1 11.1%
NCCC(O)C(=O)NC1C[C@@H](N)[C@H](O[C@@H]2OC(CN)C(O)C(O)C2O)C(O)[C@H]1O[C@H]1OC(CO)C(O)C(N)C1O (stereo partly drawn) 1.68%
O=c1cnc2cnc(Oc3ccccc3)nc2n1CCc1ccccc1 5.52%
COc1ccc(CNc2ccnc(-c3ccccc3CN(C)C)n2)c(OC)c1 -0.163%
O=C(O)CC(O)C(=O)O (stereo not drawn) 18.1%
Cc1cnc(CNc2nc(-c3ccc(C(=O)N(C)C)cc3)nc3ccccc23)cn1 -11.7%
O=c1c(-c2cccs2)nc2cnc(Oc3ccccc3)nc2n1-c1ccccc1 15.1%
CCCCCCC[N+](CC)(CC)CCCCc1ccc(Cl)cc1 453% [at 75.8 µM]
CNCCCC1c2ccccc2C=Cc2ccccc21
COc1cccc(-c2cncnc2NCc2ccc(OC)cc2OC)c1 15.5%
CCNc1ncc2nc(-c3cccs3)c(=O)n(Cc3ccc(F)cc3)c2n1 21%
CCOC(=O)C1=C[C@@H](OC(CC)CC)[C@H](NC(C)=O)[C@@H](N)C1 18.2%
O=c1cnc2cnc(N3CCNCC3)nc2n1Cc1cccs1 18.9%
CCCCNC(=O)c1sc2ncnc(NCC3CCCO3)c2c1C (stereo not drawn) 6.46%
COCCn1c(=O)c(-c2cccc(C#N)c2)nc2cnc(Oc3ccccc3)nc21 4.76%
COCCn1c(=O)c(-c2cc(F)cc(F)c2)nc2cnc(OC)nc21 12%
C=CC[n+]1cccc2cc(Br)ccc21 19.8%
COc1ccc(Oc2ncc3nc(-c4cc(F)cc(F)c4)c(=O)n(C[C@H]4CCCO4)c3n2)cc1 -19.2%
CC(C)(C)C(=O)Oc1ccc(S(=O)(=O)Nc2ccccc2C(=O)NCC(=O)O)cc1 13.4%
CC(C)Cc1nc2cc(NS(=O)(=O)N(C)C)cc(C(=O)N3CC4(C)CC3CC(C)(C)C4)c2n1C (stereo not drawn) 9.93%
CSc1ccc2c(c1)C(N1CCN(C)CC1)Cc1ccccc1S2 (stereo not drawn)
C[C@H]1COc2c(C3(N)CC3)c(F)cc3c(=O)c(C(=O)O)cn1c23 22.2%
CC(C(=O)O)c1ccc2c(c1)Cc1cccnc1O2 (stereo not drawn) 13%
COc1ccccc1-c1ccnc(-n2ncc(C(=O)NCC3(N4CCOCC4)CCCC3)c2C)n1 -2.27%
CO[C@H]1[C@H](NC(=O)C(C)C)c2ccccc2C12CCN(Cc1cnc(N(C)C)s1)CC2 -2.94%
CCCCCCCCCCCCCCCCN 5.57%
COC(=O)C[C@H](NC(=O)[C@H](C)NC(=O)[C@@H](NC(=O)OCc1ccccc1)C(C)C)C(=O)CF (Cbz-Val-Ala-Asp(OMe)-CH2F) 15.6% [at 201 µM]
O=C1CCC(O)CCN1CCSc1ccccc1 (stereo not drawn) 11.9%
C=C[C@](C)(O)CCC1C(=C)CC(O)C2C(C)(C)CCCC12C (stereo partly drawn) -20%
Cc1cnc(CNc2ncncc2-c2ccoc2)cn1 15.5%
O=C/C=C/c1ccc(O)cc1 7.33%
CC(=O)Nc1ccccc1
CCOC(=O)C[C@H]1c2ccc(C(F)(F)F)cc2S(=O)(=O)N1C(C)C -20.7%
COc1ccccc1-c1nccc(N2CCN(C)CC2)n1 1.96%
CCCN1C[C@H](CSC)C[C@@H]2c3cccc4[nH]cc(c34)C[C@H]21
COC(c1ccccc1)(c1ccccc1)[C@H](Oc1nc(C)cc(C)n1)C(=O)O 16.7%
O=C1CCC[C@@H]2CC(N(Cc3cc4ccccc4s3)c3ccccc3)C[C@@H]3CCN1[C@H]23 (stereo partly drawn) 4.08%
CC1(C)[C@@H]2CC[C@@]1(C)C(=O)C2
COC(=O)C1=C(C)NC(C)=C(C(=O)OCCN2CCN(C(c3ccccc3)c3ccccc3)CC2)C1c1cccc([N+](=O)[O-])c1 (stereo not drawn) -15.8%
O=C(O[C@H]1[C@H](Cc2ccccc2)NS(=O)(=O)[C@H]2C[C@@H]3C=C[C@]12O3)c1ccccc1Br 1.13%
Cc1c(C(=O)NC2CCCC2)sc2ncnc(NCCN(C)C)c12 9.79%
C=Cc1c(C)c2cc3[nH]c(cc4nc(cc5nc(cc1[nH]2)C(C)=C5CCC(=O)O)C(CCC(=O)O)=C4C)c(C)c3C=C
C[C@H]1CCC(=O)N(CCSc2ccc(Br)cc2)CC1 0.975%
COc1ccc(-c2cc(=O)c3c(O)cc(O)c(-c4cc(-c5cc(=O)c6c(O)cc(O)cc6o5)ccc4OC)c3o2)cc1 24.1%
